# Reference: the BET-seq Pho4 binding data (Le et al. 2018)
# Some of the results follow. Values were computed here from the reads of four pooled replicates and scatter widely.
# Target: T1, Pho4 (S. cerevisiae) (UniProt P07270)
# T1 sequence: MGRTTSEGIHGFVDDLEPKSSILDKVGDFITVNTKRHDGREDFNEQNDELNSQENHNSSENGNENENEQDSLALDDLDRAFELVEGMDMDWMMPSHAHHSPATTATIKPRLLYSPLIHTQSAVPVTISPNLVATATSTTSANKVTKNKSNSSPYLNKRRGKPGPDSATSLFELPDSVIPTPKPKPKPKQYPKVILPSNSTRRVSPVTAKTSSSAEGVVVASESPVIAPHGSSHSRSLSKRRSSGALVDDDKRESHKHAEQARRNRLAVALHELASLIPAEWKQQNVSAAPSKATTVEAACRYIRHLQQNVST
# Experiment: relative binding free energy (BET-seq); higher = weaker binding
# Details: reference: library average
row,Sequence,relative binding free energy [kJ/mol]
1,TACGACACGTGTGGTT,0.628
2,GTGTACACGTGCTTAT,-0.0837
3,TTATGCACGTGTCATT,-0.126
4,GGGCTCACGTGGGTGA,0.711
5,TTAAACACGTGTGTGG,-0.418
6,ATAGTCACGTGGTCTA,-0.167
7,GTAAACACGTGGTTGA,0.0837
8,TAAGGCACGTGTTAGA,-0.126
9,CGTGGCACGTGACGTT,-0.293
10,TTATGCACGTGCTAGT,-0.795
11,AGGTGCACGTGGTTCG,-0.502
12,ATATTCACGTGTTTAC,1.21
13,GTGTTCACGTGTGGGT,1
14,GATGTCACGTGTCGCG,0.795
15,GTTAGCACGTGGATCT,0.293
16,TGGATCACGTGAGGAG,1.34
17,TGATACACGTGGGTGT,-0.46
18,CTTGGCACGTGGAAAA,0.795
19,CTTTGCACGTGGGTCG,-0.711
20,TTGGGCACGTGCGTTT,-0.418
21,TTATACACGTGCGTGG,0.167
22,AATTTCACGTGTCAGG,1.21
23,GTGTGCACGTGTGTGA,0.377
24,CGGTGCACGTGAGGAT,1.34
25,GTGTGCACGTGCACGT,-0.502
26,GGCGACACGTGTAGGT,0.251

row,Sequence,relative binding free energy [kJ/mol]
1,ATGTGCACGTGAGGCT,0
2,ATTGTCACGTGGCTAT,-0.0418
3,TGCGCCACGTGGTGTT,-1.05
4,ATAGGCACGTGTGCGG,-0.837
5,TTATCCACGTGTATAT,0.251
6,TCGCTCACGTGGGGTT,0.586
7,AGATTCACGTGGGTCG,0.418
8,TGAAACACGTGTGGGC,-0.0418
9,GGGGGCACGTGGGCGA,-0.753
10,TGGGTCACGTGGATTG,0.837
11,AATGACACGTGATTTT,0.46
12,AAGGGCACGTGAAGGC,0.251
13,CTTGTCACGTGGGCGA,0
14,GGAGGCACGTGGCTTA,-0.167
15,TGAGACACGTGAGGGC,1.34
16,GTCGGCACGTGCGAGG,0.0837
17,GTAAGCACGTGGTAGG,-0.293
18,AGGTACACGTGTCAGT,0
19,AGGGTCACGTGTAGGC,0.126
20,GCGTTCACGTGTTTTA,1.42
21,TTACTCACGTGTTAGA,0.92
22,TGGATCACGTGTGGAC,1.38
23,CGATGCACGTGTTGTG,-0.377
24,GGGGTCACGTGTCGAA,0.795
25,GGCGGCACGTGTTGGT,0.418
26,CTGTGCACGTGAGTTG,0.293

row,Sequence,relative binding free energy [kJ/mol]
1,TGGGACACGTGTCGTG,0.167
2,GTGGTCACGTGGTCCT,0.544
3,CTATCCACGTGTTTGG,0.586
4,CGGATCACGTGAAGGT,0.837
5,AGTGACACGTGGTGGA,-0.209
6,TTTGGCACGTGTACAG,-0.837
7,CTGGGCACGTGGTGCA,-0.837
8,ACGGTCACGTGTGGCG,0.711
9,GAAGACACGTGTTGGT,0.753
10,GATTGCACGTGTAGTT,0.837
11,TGACACACGTGTAATG,0.795
12,GTTTACACGTGTACGG,0.962
13,GTTTTCACGTGCTAGT,1.34
14,TATGGCACGTGAATTA,1
15,CTACGCACGTGTTTGT,-0.377
16,TGGTGCACGTGGATAA,0.0837
17,GTTCTCACGTGTTTGA,0.251
18,GGTTTCACGTGGCCTT,0.795
19,ATGGGCACGTGTAGCA,-0.502
20,GTTGGCACGTGCAAAG,-0.46
21,GTGAGCACGTGTGCGG,-0.377
22,TTTTCCACGTGATGTA,1
23,GGTGTCACGTGTGTTG,0.628
24,ATCGTCACGTGCGTTT,0.669
25,TGGTTCACGTGTCGTC,0.837
26,GGGGCCACGTGGGTCG,-0.335

row,Sequence,relative binding free energy [kJ/mol]
1,TGTGGCACGTGCGCTG,-0.837
2,AGGGGCACGTGTGCTT,-0.586
3,GGGGGCACGTGAGTCG,0.544
4,TGTGGCACGTGATCTG,-0.0837
5,GGTGACACGTGGGGAT,-0.46
6,ATTGTCACGTGGTGGT,0.251
7,GTTGGCACGTGCAGTT,0.0418
8,AATAGCACGTGTCATG,-0.418
9,ACAAGCACGTGGTTTG,-0.293
10,GTGGACACGTGAATGG,1.3
11,ACTTGCACGTGAGGTA,0.418
12,GGATACACGTGTTTAA,0.46
13,ACTGTCACGTGATGTT,0.335
14,TGTTTCACGTGCAGGC,0.544
15,AATGTCACGTGGTCTT,0.46
16,TTGTTCACGTGTAGAT,1.63
17,ATGGACACGTGGGTGC,-0.753
18,AGTGGCACGTGGGACT,-0.586
19,GGGTTCACGTGTAGCT,1.13
20,ACAGGCACGTGGTGGG,-0.669
21,TTTTGCACGTGCACTT,-0.586
22,GGGCACACGTGTTATG,0.544
23,CGTAGCACGTGAGTAA,0.879
24,TCTGTCACGTGTTTAT,0.586
25,TGTTTCACGTGCATAT,1.51
26,TAGTTCACGTGAGCAG,1.84

row,Sequence,relative binding free energy [kJ/mol]
1,GGCGTCACGTGTCGGG,1
2,GCAGACACGTGGGGGT,-0.711
3,CGTGTCACGTGGGAAT,0.0837
4,GGGATCACGTGTTGGT,0.377
5,TTACGCACGTGGGTGG,-1.17
6,AATGTCACGTGGCTTA,0.418
7,AGGACCACGTGTTGTG,-0.502
8,ATGTACACGTGGGCAT,-0.293
9,GGGGCCACGTGGAAAG,0.377
10,CTGGTCACGTGCTGGC,0.711
11,TGAGGCACGTGGCTTA,-0.502
12,TCTTTCACGTGGCTTT,0.795
13,TTTGTCACGTGTTATT,0.46
14,TTTTACACGTGATAGT,0.586
15,TTGGTCACGTGTGGGA,0.544
16,ACAGACACGTGTTGGT,0.377
17,TATTGCACGTGGGCGC,-0.293
18,TGGGGCACGTGATAGA,-0.335
19,TGGATCACGTGTTACG,1.09
20,AATGGCACGTGTTTTG,-0.335
21,AAGGGCACGTGTCAGG,-0.879
22,TTTAACACGTGGGAAT,0
23,AATGTCACGTGTGATG,0.377
24,CGTGTCACGTGCGTAT,-0.0837
25,TGGCTCACGTGGGCGG,0.418
26,TCTGTCACGTGCTTGG,0

row,Sequence,relative binding free energy [kJ/mol]
1,AGGTCCACGTGGAGGC,0
2,GGTTTCACGTGGCATA,1.26
3,ATTATCACGTGGAAGG,0.46
4,TGTCGCACGTGAGATG,0.418
5,TTTTTCACGTGCTCTG,0.544
6,TCTTGCACGTGGAAGG,0.502
7,CGGACCACGTGGGGTG,-0.879
8,TTCGGCACGTGAAGTA,0.502
9,AGGATCACGTGTGAAG,0.92
10,GTTAGCACGTGAGTGT,0.92
11,AAGGTCACGTGTGAGA,0.962
12,GCAGTCACGTGGATGT,0.544
13,GAGTTCACGTGTAAGG,1.3
14,AGTCACACGTGAGGGA,1.17
15,TGTAGCACGTGGGGTA,-1.09
16,TGACACACGTGAGGTT,1.76
17,TGCTACACGTGATGTT,0.628
18,AGATTCACGTGTAGGA,0.837
19,GATAGCACGTGAAGTG,1.26
20,AATCTCACGTGTGTGT,1.55
21,TTGCGCACGTGTTAAT,-0.209
22,TAGTACACGTGCGGGA,-0.126
23,TGAGGCACGTGTAGTT,0.251
24,GGGCTCACGTGTCGTT,1.38
25,CTTGGCACGTGGGAGC,-0.418
26,AGGAGCACGTGTGGCA,-0.544

row,Sequence,relative binding free energy [kJ/mol]
1,CGGATCACGTGTTTGG,0.879
2,TGTGACACGTGGGCCT,-0.628
3,GATTGCACGTGCAAGG,0.92
4,TCGTTCACGTGTTTGA,1.34
5,TGATGCACGTGGACTT,0.628
6,TATTGCACGTGCTGGC,0.0418
7,TGGGACACGTGAGACA,1.46
8,GTATGCACGTGAAGTA,0.753
9,ATGTGCACGTGTTAAA,-0.544
10,TTTGACACGTGTGGAC,0.209
11,ATTTTCACGTGAGGTC,1.46
12,GGTACCACGTGTAGGA,0.251
13,ATATTCACGTGCTGTG,1.05
14,AGGTTCACGTGTTTAT,1.38
15,CGAGGCACGTGCCGGG,-0.628
16,AGTTTCACGTGAAAGG,2.09
17,TTGGGCACGTGACGTT,0.209
18,ATTTACACGTGAATTG,0.962
19,GTAGTCACGTGGTTAA,0.628
20,GCGCGCACGTGGTGTT,-0.418
21,TCGGGCACGTGGGTGA,-0.753
22,CGGGGCACGTGGACTT,-0.293
23,TGTCGCACGTGTGCTT,-0.293
24,TATTACACGTGAGAGT,1.34
25,GTTGGCACGTGTCATG,-0.502
26,TGTTGCACGTGGAGAT,-0.293

row,Sequence,relative binding free energy [kJ/mol]
1,TGTTGCACGTGGGAAA,-0.0837
2,TAGCGCACGTGTGTGG,-0.795
3,TTAATCACGTGAGGTG,1.46
4,TTGACCACGTGTGTTA,-0.209
5,TTTATCACGTGTGTCT,0.293
6,AGGTTCACGTGGTGAG,1.3
7,TTGGCCACGTGGTTTT,0.0837
8,TGAGGCACGTGGGGCT,-0.837
9,TTTTTCACGTGCCGAT,0.92
10,TTTCTCACGTGGGGCA,0.628
11,CGTGTCACGTGTAGAA,0.209
12,TTATACACGTGCATGG,0.0837
13,TGTTGCACGTGCATAT,-0.711
14,TGGTGCACGTGTGCTG,0.0837
15,ATTTGCACGTGATTCA,0.377
16,CACGTCACGTGTATGG,1.17
17,ATTAGCACGTGATATT,0.167
18,GTAGTCACGTGTGGTG,1.13
19,CTGTGCACGTGCTTGG,-0.586
20,AATTTCACGTGAGGAG,1.46
21,GTCAGCACGTGTGGAG,-0.209
22,GCTTGCACGTGAGGAT,1
23,AATGGCACGTGCTGTT,-0.795
24,GGGCGCACGTGTGCAT,0.0418
25,GTGTACACGTGTTGCA,0.126
26,TGCAGCACGTGTTGTT,-0.502

row,Sequence,relative binding free energy [kJ/mol]
1,TCTCTCACGTGGTTGG,0.544
2,GGATACACGTGTAGTG,0.209
3,TTTGGCACGTGATTAT,0.167
4,AAGTACACGTGGATGT,0.628
5,CATTTCACGTGGGTGG,0.879
6,ACAGACACGTGATGGG,1.21
7,GAGGGCACGTGGTCAA,-0.335
8,ATTGTCACGTGGCGTA,-0.377
9,GTAGTCACGTGGATCG,0.711
10,ATAATCACGTGGGAGA,0.251
11,TGCGTCACGTGATTAT,0.628
12,TGGGACACGTGAATGC,1.34
13,AGTAACACGTGCGGTA,-0.502
14,TCATGCACGTGATTAT,0.795
15,TAAATCACGTGATTTA,0.711
16,GGTGACACGTGGGGTA,-0.628
17,GGGGGCACGTGAGTCT,0.544
18,GTACGCACGTGAGTGA,1.09
19,TGATACACGTGTGGTG,0
20,GCTTTCACGTGTTTGG,1.42
21,GGTGACACGTGTAAGG,0.167
22,GCCGGCACGTGAGGGG,-0.335
